Data as given in the supplement of paper PMC8728848.
Some of the results follow.

Tests used:
Experiment in all cases: glycan array binding signal (z-score within array); higher = stronger binding
Details in all cases: glycan notation: IUPAC condensed, linker removed
Fuc(a1-2)Gal = target: Fuc(a1-2)Gal
In short: (§1)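 Glycan array data came from 3228 arrays in the Consortium for Functional Glycomics database, and only arrays with an available protein sequence were kept. Glycan names were put into IUPAC-condensed notation, and columns mapping to the same glycan were averaged. The binding signal is a within-array Z-score, averaged across arrays of one protein sequence run at different concentrations or buffers and across linkers. A negative Z-score can be read as non-binding.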

Fuc(a1-2)Gal(b1-3)GalNAc = target: Fuc(a1-2)Gal(b1-3)GalNAc
In short: as §1

[1] = target: Fuc(a1-2)Gal(b1-3)GalNAc(b1-3)Gal
In short: as §1

[2] = target: Fuc(a1-2)Gal(b1-3)GalNAc(b1-3)Gal(a1-4)Gal(b1-4)Glc
In short: as §1

[3] = target: Fuc(a1-2)Gal(b1-3)GalNAc(b1-4)[Neu5Ac(a2-3)]Gal(b1-4)Glc
In short: as §1

Fuc(a1-2)Gal(b1-3)GlcNAc = target: Fuc(a1-2)Gal(b1-3)GlcNAc
In short: as §1

[4] = target: Fuc(a1-2)Gal(b1-3)GlcNAc(b1-2)Man(a1-3)[Fuc(a1-2)Gal(b1-3)GlcNAc(b1-2)Man(a1-6)]Man(b1-4)GlcNAc(b1-4)GlcNAc
In short: as §1

[5] = target: Fuc(a1-2)Gal(b1-3)GlcNAc(b1-3)Gal(b1-4)Glc
In short: as §1

[6] = target: Fuc(a1-2)Gal(b1-3)GlcNAc(b1-3)[Gal(b1-4)[Fuc(a1-3)]GlcNAc(b1-6)]Gal(b1-4)Glc
In short: as §1

[7] = target: Fuc(a1-2)Gal(b1-3)[Fuc(a1-4)]GlcNAc
In short: as §1

[8] = target: Fuc(a1-2)Gal(b1-3)[Fuc(a1-4)]GlcNAc(b1-2)Man(a1-3)[Fuc(a1-2)Gal(b1-3)[Fuc(a1-4)]GlcNAc(b1-2)Man(a1-6)]Man(b1-4)GlcNAc(b1-4)GlcNAc
In short: as §1

Fuc(a1-2)Gal(b1-4)Glc = target: Fuc(a1-2)Gal(b1-4)Glc
In short: as §1

Fuc(a1-2)Gal(b1-4)Glc6S = target: Fuc(a1-2)Gal(b1-4)Glc6S
In short: as §1

Fuc(a1-2)Gal(b1-4)GlcNAc = target: Fuc(a1-2)Gal(b1-4)GlcNAc
In short: as §1

[9] = target: Fuc(a1-2)Gal(b1-4)GlcNAc(b1-2)Man(a1-3)[Fuc(a1-2)Gal(b1-4)GlcNAc(b1-2)Man(a1-6)]Man(b1-4)GlcNAc(b1-4)GlcNAc
In short: as §1

[10] = target: Fuc(a1-2)Gal(b1-4)GlcNAc(b1-3)Gal(b1-4)GlcNAc
In short: as §1

[11] = target: Fuc(a1-2)Gal(b1-4)GlcNAc(b1-3)Gal(b1-4)GlcNAc(b1-3)Gal(b1-4)GlcNAc
In short: as §1

[12] = target: Fuc(a1-2)Gal(b1-4)GlcNAc6S
In short: as §1

[13] = target: Fuc(a1-2)Gal(b1-4)[Fuc(a1-3)]GlcNAc
In short: as §1

[14] = target: Fuc(a1-2)Gal(b1-4)[Fuc(a1-3)]GlcNAc(b1-2)Man(a1-3)[Fuc(a1-2)Gal(b1-4)[Fuc(a1-3)]GlcNAc(b1-2)Man(a1-6)]Man(b1-4)GlcNAc(b1-4)GlcNAc
In short: as §1

[15] = target: Fuc(a1-2)Gal(b1-4)[Fuc(a1-3)]GlcNAc(b1-3)Gal(b1-4)[Fuc(a1-3)]GlcNAc
In short: as §1

[16] = target: Fuc(a1-2)Gal(b1-4)[Fuc(a1-3)]GlcNAc(b1-3)Gal(b1-4)[Fuc(a1-3)]GlcNAc(b1-3)Gal(b1-4)[Fuc(a1-3)]GlcNAc
In short: as §1

Fuc(a1-2)Gal6S(b1-4)Glc = target: Fuc(a1-2)Gal6S(b1-4)Glc
In short: as §1

[17] = target: Fuc(a1-2)Gal6S(b1-4)Glc6S
In short: as §1

[18] = target: Fuc(a1-2)Gal6S(b1-4)GlcNAc
In short: as §1

Fuc(a1-2)[Gal(a1-3)]Gal = target: Fuc(a1-2)[Gal(a1-3)]Gal
In short: as §1

[19] = target: Fuc(a1-2)[Gal(a1-3)]Gal(b1-3)GlcNAc
In short: as §1

[20] = target: Fuc(a1-2)[Gal(a1-3)]Gal(b1-3)GlcNAc(b1-2)Man(a1-3)[Fuc(a1-2)[Gal(a1-3)]Gal(b1-3)GlcNAc(b1-2)Man(a1-6)]Man(b1-4)GlcNAc(b1-4)GlcNAc
In short: as §1

[21] = target: Fuc(a1-2)[Gal(a1-3)]Gal(b1-4)Glc
In short: as §1

[22] = target: Fuc(a1-2)[Gal(a1-3)]Gal(b1-4)GlcNAc
In short: as §1

B1: HHL-1 (Homo sapiens), P07306 (protein)
chain: TKEYQDLQHLDNEESDHHQLRKGPPPPQPLLQRLCSGPRLLLLSLGLSLLLLVVVCVIGSQNSQLQEELRGLRETFSNFTASTEAQVKGLSTQGGNVGRKMKSLESQLEKQQKDLSEDHSSLLLHVKQFVSDLRSLSCQMAALQGNGSERTCCPVNWVEHERSCYWFSRSGKAWADADNYCRLEDAHLVVVTSWEEQKFVQHHIGPVNTWMGLHDQNGPWKWVDGTDYETGFKNWRPEQPDDWYGHGLGGGEDCAHFTDDGRWNDDVCQRPYRWVCETELDKASQEPPLL
glycan array binding signal (z-score) (Fuc(a1-2)Gal): -0.192 | glycan array binding signal (z-score) (Fuc(a1-2)Gal(b1-3)GalNAc): -0.124 | glycan array binding signal (z-score) [1]: 1.27 | glycan array binding signal (z-score) [2]: -0.576 | glycan array binding signal (z-score) [3]: 0.054 | glycan array binding signal (z-score) (Fuc(a1-2)Gal(b1-3)GlcNAc): -0.371 | glycan array binding signal (z-score) [4]: -0.526 | glycan array binding signal (z-score) [5]: -0.444 | glycan array binding signal (z-score) [6]: 0.628 | glycan array binding signal (z-score) [7]: 0.785 | glycan array binding signal (z-score) [8]: -0.47 | glycan array binding signal (z-score) (Fuc(a1-2)Gal(b1-4)Glc): -0.517 | glycan array binding signal (z-score) (Fuc(a1-2)Gal(b1-4)Glc6S): 0.24 | glycan array binding signal (z-score) (Fuc(a1-2)Gal(b1-4)GlcNAc): -0.433 | glycan array binding signal (z-score) [9]: -0.533 | glycan array binding signal (z-score) [10]: -0.281 | glycan array binding signal (z-score) [11]: -0.319 | glycan array binding signal (z-score) [12]: -0.56 | glycan array binding signal (z-score) [13]: -0.054 | glycan array binding signal (z-score) [14]: 0.169 | glycan array binding signal (z-score) [15]: -0.55 | glycan array binding signal (z-score) [16]: 0.511 | glycan array binding signal (z-score) (Fuc(a1-2)Gal6S(b1-4)Glc): 1.57 | glycan array binding signal (z-score) [17]: 0.786 | glycan array binding signal (z-score) [18]: 0.321 | glycan array binding signal (z-score) (Fuc(a1-2)[Gal(a1-3)]Gal): -0.251 | glycan array binding signal (z-score) [19]: -0.506 | glycan array binding signal (z-score) [20]: -0.472 | glycan array binding signal (z-score) [21]: -0.484 | glycan array binding signal (z-score) [22]: -0.546
